US6613534B2, “MAP-2 as a determinant of metastatic potential” (Wake Forest University Health Sciences, priority 2001, dated 2003)

Tested on: TYRP1 mRNA in SK-MEL-19 and SK-MEL-23 cl.22 cells
Assay: Northern blot of polyA+ RNA for TYRP1 mRNA in HMBA-treated metastatic melanoma cells
Settings: FIG. 4A

For `CC(=O)NCCCCCCNC(C)=O` [HMBA, hexamethylene bisacetamide], the “TYRP1 mRNA (melanocyte differentiation marker)” value was “down-regulation”.
